Reference: PubChem BioAssay (Tox21)
This list was built around the results that the source calls inconclusive (neither active nor inactive); the mix of calls is not that of the screen. For some assays here: No potency is given beside an inconclusive call; the fits are too rough. Calls of active or inactive are those of the source. Unless noted, calls follow the shape of the dose curve; as a rule, active = well fitted curve in the direction sought with a large enough effect in the repeat runs; inconclusive = weak or mixed curves; inactive = no such curve, though single readings can be large; an effect the other way counts as inactive or inconclusive.

Experiments:
[1] = qHTS assay for small molecules that induce genotoxicity in human embryonic kidney cells expressing luciferase-tagged ATAD5 - cell viability (AID 651634; calls by dose curve; also: potency is read from the fitted curve at half-maximal effect; nearly all actives have a fitted effect of over 25% in size)
Summary of the method: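 HEK293T cells carrying luciferase-tagged ATAD5, 2,000 cells/well, exposed to compound for 15.5 hr at 37C. Viability read as live-cell protease activity by CellTiter-Fluor fluorescence after 30 min at 37C.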

[2] = qHTS assay for small molecule disruptors of the mitochondrial membrane potential (AID 720635); details: HepG2 mitochondrial membrane potential, Mito-MPS dye ratio; ratio activity, negative = MMP loss: at 83.2 µM (top of the series) unless noted; also: potency is read from the fitted curve at half-maximal effect
Summary of the method: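 HepG2 cells (2,000/well) attached overnight at 37C, then took compound for 1 hr at 37C, 5% CO2. Mito-MPS dye was added for 30 min; fluorescence was read at 490/535 nm (monomers) and 540/590 nm (aggregates).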

[3] = molecular target: Glucocorticoid receptor (Homo sapiens) (UniProt P04150); assay: qHTS assay to identify small molecule antagonists of the glucocorticoid receptor (GR) signaling pathway (AID 720692; active = well fitted inhibition curve with a large enough effect in the signal ratio in the repeat runs, not every such curve was filed as active; inconclusive = weak or mixed curves, or effect the other way; inactive = no such curve, though single readings can be large or run the other way; the % refers to the signal ratio; also: % is scaled to controls: 0 for no effect and ±100 for the full control effect); details: GR-bla HeLa, beta-lactamase FRET ratio, dexamethasone-stimulated, 18 h; activity change, negative = inhibition: at 58.5 µM (top of the series) unless noted
Summary of the method: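 GR-bla HeLa cells carrying a GRE-driven beta-lactamase reporter received compound after 4 h plating, then dexamethasone (5 nM final). After 18 h at 37C, the FRET substrate was loaded for 2 h at room temperature and fluorescence read.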

[4] = qHTS assay for identifying genotoxic compounds that show differential cytotoxicity against isogenic chicken DT40 cell lines with known DNA damage response pathways - wild type cell line (AID 743012); details: DT40 wild type chicken cells viability, CellTiter-Glo, 40 h; activity change, negative = cytotoxicity: at 68.4 µM (top of the series) unless noted; also: nearly all actives have a fitted effect of over 60% in size; also: potency is read from the fitted curve at half-maximal effect
Summary of the method: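 Wild-type DT40 cells (300/well) exposed to compounds for 40 hours at 37 C/5% CO2. Viability read by CellTiter-Glo luminescence after 30 min at room temperature.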

[5] = qHTS assay to identify small molecule antagonists of the androgen receptor (AR) signaling pathway - cell viability counter screen (AID 743033; also: potency is read from the fitted curve at half-maximal effect; nearly all actives have a fitted effect of over 45% in size); details: AR-bla HEK293 viability, CellTiter-Glo luminescence, 16 h; activity change, negative = cytotoxicity: at 58.5 µM (top of the series) unless noted
[6] = qHTS assay to identify small molecule antagonists of the androgen receptor (AR) signaling pathway using the MDA cell line - cell viability counter screen (AID 743041; also: nearly all actives have a fitted effect of over 45% in size; also: potency is read from the fitted curve at half-maximal effect); details: MDA-kb2 viability, CellTiter-Fluor, 16 h, cells co-treated with R1881 androgen agonist; viability change, negative = cytotoxic: at 70.3 µM (top of the series)
Summary of the method: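 Viability counter screen run alongside the AR antagonist reporter: cells seeded 5 h before compound, R1881 added, 16 h incubation at 37C without CO2, fluorescent CellTiter-Fluor signal quantified.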

[7] = qHTS assay to identify small molecule antagonists of the estrogen receptor alpha (ER-alpha) signaling pathway - cell viability counter screen (AID 743074; calls by dose curve;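 also: HEK293 cells carrying ER-alpha-UAS-bla reporter stimulated with 17beta-estradiol; potency is read from the fitted curve at half-maximal effect; nearly all actives have a fitted effect of over 45% in size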)
[8] = molecular target: Estrogen receptor (Homo sapiens) (UniProt P03372); assay: qHTS assay to identify small molecule agonists of the estrogen receptor alpha (ER-alpha) signaling pathway using the BG1 cell line (AID 743079); details: BG1Luc4E2 cells, ERE-luciferase agonist, 22 h; activation: at 70.3 µM (top of the series) unless noted; also: nearly all actives have a fitted effect of over 20% in size; also: potency is read from the fitted curve at half-maximal effect
[9] = qHTS assay to identify small molecule antagonists of the estrogen receptor alpha (ER-alpha) signaling pathway using the BG1 cell line (AID 743080; calls by dose curve;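 also: BG1 cells stimulated with 17beta-estradiol alongside compound; potency is read from the fitted curve at half-maximal effect; nearly all actives have a fitted effect of over 25% in size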); details: BG1Luc4E2 ERE-luciferase antagonist mode, luminescence; activity change, negative = inhibition: at 70.3 µM (top of the series) unless noted
Summary of the method: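 Quantitative HTS on the Tox21 10K library: BG1 cells with endogenous ER-alpha and ERE-luciferase reporter, 17beta-estradiol stimulation, 21.5 h compound exposure, luminescence endpoint with parallel fluorescence cytotoxicity counter-read.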

[10] = qHTS assay to identify small molecule antagonists of the estrogen receptor alpha (ER-alpha) signaling pathway using the BG1 cell line - cell viability counter screen (AID 743081); details: BG1Luc4E2 viability, CellTiter-Fluor, 22 h; activity change, negative = cytotoxicity: at 70.3 µM (top of the series) unless noted;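 also: compound given together with 17beta-estradiol as the ER stimulus; nearly all actives have a fitted effect of over 45% in size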; also: potency is read from the fitted curve at half-maximal effect
[11] = qHTS assay to identify small molecule that activate the aryl hydrocarbon receptor (AhR) signaling pathway - cell viability counter screen (AID 743086)
Summary of the method: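 HepG2-AhR-luc (HG2L7.5c1) cells, 4000/well, were preincubated 5 h at 37C, exposed to compound in qHTS format for 24 hr at 37C, then given CellTiter-Fluor for 30 min; viability was read as fluorescence in the reporter wells.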

[12] = qHTS assay to test for compound auto fluorescence at 460 nm (blue) in HEK293 cells (AID 720678); also: potency is read from the fitted curve at half-maximal effect
Summary of the method: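 Measured: blue fluorescence (Ex 405/Em 460 nm) of compound-treated HEK293 cells, incubated overnight at 37C with 5% CO2 and scaled to triamterene equivalents.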

[13] = qHTS assay to test for compound auto fluorescence at 460 nm (blue) in HEK293 cell free culture (AID 720681); also: potency is read from the fitted curve at half-maximal effect
Summary of the method: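 Test compounds were pinned into cell-free culture medium (DMEM with 10% FBS) and fluorescence was read directly at Ex/Em 405/460 nm. Signals were expressed as fluorescence equivalents of triamterene, with DMSO vehicle as control.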

[14] = qHTS assay to test for compound auto fluorescence at 460 nm (blue) in HepG2 cell free culture (AID 720685); also: potency is read from the fitted curve at half-maximal effect
Summary of the method: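 Compound (23 nL) or DMSO pinned into cell-free MEM with 10% FBS; blue fluorescence read at 405/460 nm excitation/emission, expressed as auto-fluorescence equivalency to triamterene.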

[15] = molecular target: Androgen receptor (Homo sapiens) (UniProt P10275); assay: qHTS assay to identify small molecule antagonists of the androgen receptor (AR) signaling pathway (AID 743035; active = well fitted inhibition curve with a large enough effect in the signal ratio in the repeat runs, not every such curve was filed as active; inconclusive = weak or mixed curves, or effect the other way; inactive = no such curve, though single readings can be large or run the other way; the % refers to the signal ratio; also: % is scaled to controls: 0 for no effect and ±100 for the full control effect); details: HEK293 AR-UAS-bla, R1881-stimulated, beta-lactamase FRET, 16 h; activity change, negative = inhibition: at 58.5 µM (top of the series) unless noted
Summary of the method: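 HEK293 cells stably carrying UAS-beta-lactamase reporter, 2,000/well, given compounds plus R1881 agonist and incubated 16 h at 37C. LiveBLAzer B/G FRET substrate then added for 2 h at room temperature before fluorescence reading.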

[16] = molecular target: Androgen receptor (Homo sapiens) (UniProt P10275); assay: qHTS assay to identify small molecule agonists of the androgen receptor (AR) signaling pathway (AID 743036; active = well fitted activation curve with a large enough effect in the signal ratio in the repeat runs, with a control signal flat, not every such curve was filed as active; inconclusive = weak or mixed curves, or effect the other way; inactive = no such curve, though single readings can be large or run the other way; the % refers to the signal ratio; also: % is scaled to controls: 0 for no effect and ±100 for the full control effect); details: HEK293 AR-UAS-bla GripTite, beta-lactamase FRET ratio, 16 h; activation: at 62.4 µM (top of the series) unless noted
Summary of the method: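 AR-UAS-bla HEK293 cells, plated 4 h before dosing, were treated with compound for 16 h at 37C. beta-Lactamase reporter read after 2 h with LiveBLAzer B/G FRET substrate at room temperature.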

[17] = molecular target: Androgen receptor (Homo sapiens) (UniProt P10275); assay: qHTS assay to identify small molecule antagonists of the androgen receptor (AR) signaling pathway using the MDA cell line (AID 743042; also: potency is read from the fitted curve at half-maximal effect; nearly all actives have a fitted effect of over 55% in size)
Summary of the method: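 MDA-kb2 cells (human breast carcinoma, stably carrying an MMTV-luciferase reporter responsive to AR and GR) were plated at 3,000 cells/well and preincubated 5 hr at 37C, then given compound plus R1881 agonist for 16 h. ONE-Glo luminescence was read.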

[18] = qHTS assay for small molecule disruptors of the mitochondrial membrane potential - cell viability (AID 720634; calls by dose curve;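 also: human HepG2 liver cancer cells; % is scaled to controls: 0 for no effect and ±100 for the full control effect; nearly all actives have a fitted effect of over 20% in size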)
Summary of the method: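 HepG2 cells, 2,000 per well, attached overnight, then treated 1 hr at 37 C, 5% CO2. Viability read as ATP by CellTiter-Glo luminescence after 30 min at room temperature. Read in the same wells as the m-MPI membrane-potential dye assay.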

[19] = qHTS assay for identifying genotoxic compounds that show differential cytotoxicity against isogenic chicken DT40 cell lines with known DNA damage response pathways - Rev3 mutant cell line (AID 743014); details: chicken DT40 Rev3-/- viability, CellTiter-Glo, 40 h; activity, negative = cytotoxicity: at 68.4 µM (top of the series) unless noted; also: % is scaled to controls: 0 for no effect and ±100 for the full control effect; nearly all actives have a fitted effect of over 55% in size
[20] = test system: thyroid hormone receptor (rat, GH3 cells); assay: qHTS assay to identify small molecule agonists of the thyroid receptor (TR) signaling pathway (AID 743066; calls by dose curve; also: % is scaled to controls: 0 for no effect and ±100 for the full control effect); details: GH3.TRE-Luc cells, TR agonist luciferase, 24 h; activation: at 83.9 µM (top of the series) unless noted
Tags tell the direction and shape of the fitted curve or compound fluorescence and quenching.

Chain of UniProt P10275 (P10275 whole entry, looked up): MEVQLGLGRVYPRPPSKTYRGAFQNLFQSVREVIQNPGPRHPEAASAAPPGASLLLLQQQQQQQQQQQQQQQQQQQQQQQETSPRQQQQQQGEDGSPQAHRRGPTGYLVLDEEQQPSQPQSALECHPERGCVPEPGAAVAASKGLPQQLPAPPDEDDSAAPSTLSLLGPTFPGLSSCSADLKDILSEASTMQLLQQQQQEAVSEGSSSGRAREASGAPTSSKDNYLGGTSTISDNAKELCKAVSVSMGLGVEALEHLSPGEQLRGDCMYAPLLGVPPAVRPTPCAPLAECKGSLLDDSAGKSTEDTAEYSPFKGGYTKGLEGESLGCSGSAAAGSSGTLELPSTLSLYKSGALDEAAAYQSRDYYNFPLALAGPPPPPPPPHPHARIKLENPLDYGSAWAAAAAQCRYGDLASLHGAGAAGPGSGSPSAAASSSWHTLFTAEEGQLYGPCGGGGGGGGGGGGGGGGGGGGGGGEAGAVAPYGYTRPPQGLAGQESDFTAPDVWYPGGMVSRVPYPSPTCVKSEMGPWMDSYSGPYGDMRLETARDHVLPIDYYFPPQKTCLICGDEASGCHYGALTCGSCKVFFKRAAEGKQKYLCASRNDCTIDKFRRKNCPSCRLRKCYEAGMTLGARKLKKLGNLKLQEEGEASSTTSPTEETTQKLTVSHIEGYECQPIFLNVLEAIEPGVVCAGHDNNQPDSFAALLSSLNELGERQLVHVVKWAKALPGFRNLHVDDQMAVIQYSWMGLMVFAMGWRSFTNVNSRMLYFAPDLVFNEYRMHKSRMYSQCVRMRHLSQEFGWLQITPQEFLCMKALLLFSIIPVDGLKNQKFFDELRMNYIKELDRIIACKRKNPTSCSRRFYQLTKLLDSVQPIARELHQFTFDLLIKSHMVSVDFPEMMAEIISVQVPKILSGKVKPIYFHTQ
Chain of UniProt P03372 (P03372 whole entry, looked up): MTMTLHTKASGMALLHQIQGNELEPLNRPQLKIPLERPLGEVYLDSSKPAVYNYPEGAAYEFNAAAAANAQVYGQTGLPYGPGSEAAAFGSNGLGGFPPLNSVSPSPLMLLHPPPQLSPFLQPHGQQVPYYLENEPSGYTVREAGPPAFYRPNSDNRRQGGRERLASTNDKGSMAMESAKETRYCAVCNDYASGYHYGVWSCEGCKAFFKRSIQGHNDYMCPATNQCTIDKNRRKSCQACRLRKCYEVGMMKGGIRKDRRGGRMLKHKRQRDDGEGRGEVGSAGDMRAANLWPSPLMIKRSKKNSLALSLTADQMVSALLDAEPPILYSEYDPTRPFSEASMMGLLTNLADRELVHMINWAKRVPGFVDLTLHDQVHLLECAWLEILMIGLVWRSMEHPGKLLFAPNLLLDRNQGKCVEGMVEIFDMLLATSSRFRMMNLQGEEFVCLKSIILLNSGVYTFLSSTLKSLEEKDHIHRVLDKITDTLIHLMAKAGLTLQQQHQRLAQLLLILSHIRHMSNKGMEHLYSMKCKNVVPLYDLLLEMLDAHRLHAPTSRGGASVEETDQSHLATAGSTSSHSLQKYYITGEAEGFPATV
Chain of UniProt P04150 (P04150 whole entry, looked up): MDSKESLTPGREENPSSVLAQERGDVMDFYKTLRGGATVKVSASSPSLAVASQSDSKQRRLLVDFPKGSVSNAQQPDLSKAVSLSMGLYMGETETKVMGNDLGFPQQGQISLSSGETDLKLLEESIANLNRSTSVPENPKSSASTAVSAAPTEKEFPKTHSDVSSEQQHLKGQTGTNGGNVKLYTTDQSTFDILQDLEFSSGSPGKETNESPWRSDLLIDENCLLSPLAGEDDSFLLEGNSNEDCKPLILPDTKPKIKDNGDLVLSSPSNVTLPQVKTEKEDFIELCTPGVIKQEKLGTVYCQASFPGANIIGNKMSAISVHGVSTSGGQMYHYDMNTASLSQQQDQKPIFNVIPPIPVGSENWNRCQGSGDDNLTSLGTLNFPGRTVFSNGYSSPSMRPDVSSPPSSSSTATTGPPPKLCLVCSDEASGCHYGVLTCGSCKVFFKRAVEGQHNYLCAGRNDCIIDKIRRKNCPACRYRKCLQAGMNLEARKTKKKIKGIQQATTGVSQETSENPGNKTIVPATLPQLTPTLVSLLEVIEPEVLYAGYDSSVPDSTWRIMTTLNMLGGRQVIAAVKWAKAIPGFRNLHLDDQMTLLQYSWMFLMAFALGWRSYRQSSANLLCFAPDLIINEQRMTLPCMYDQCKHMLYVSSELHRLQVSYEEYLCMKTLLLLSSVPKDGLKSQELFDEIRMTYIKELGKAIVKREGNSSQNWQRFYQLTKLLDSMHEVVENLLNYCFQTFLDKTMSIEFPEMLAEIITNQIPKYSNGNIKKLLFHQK

Q: Which Potency [1] does the source give for `CN(C)c1ccc(C(=C2C=CC(=[N+](C)C)C=C2)c2c(O)c(S(=O)(=O)[O-])cc3cc(S(=O)(=O)O)ccc23)cc1` here?
A: inconclusive [falling, single point]

Q: What about the ratio activity, negative = MMP loss [2] of the same compound?
A: inconclusive: -16.6%

Q: And the Potency [3]?
A: inactive

Q: What about the Potency [4] of the same compound?
A: active: 11.9 µM

Q: What about the Potency [5] of the same compound?
A: inconclusive [cytotoxic, single point]

Q: What about the Potency [6] of the same compound?
A: inconclusive [cytotoxic, single point]

Q: And the Potency [7]?
A: inconclusive [cytotoxic, partial curve, poor fit]

Q: And the Potency [8]?
A: inconclusive [inhibitor, partial curve]

Q: And the Potency [9]?
A: inconclusive [falling, partial curve]

Q: What about the Potency [10] of the same compound?
A: active: 23.7 µM

Q: And the Potency [11]?
A: active: 26.6 µM

Q: With `CC1(C)S[C@@H]2[C@H](NC(=O)[C@H](N)c3ccc(O)cc3)C(=O)N2[C@H]1C(=O)O` as the compound, how does the Potency [2] read?
A: inactive

Q: And the Potency [12]?
A: inconclusive [fluorescent, partial curve, poor fit]

Q: And the Potency [13]?
A: inconclusive [rising, partial curve, poor fit]

Q: And the Potency [14]?
A: inconclusive [fluorescent, partial curve, poor fit]

Q: What about the Potency [4] of the same compound?
A: inactive

Q: What about the activity change, negative = inhibition [15] of the same compound?
A: inconclusive: 22%

Q: What about the Potency [16] of the same compound?
A: inactive

Q: What about the Potency [17] of the same compound?
A: inconclusive [inhibitor, full curve, poor fit]

Q: And the Potency [10]?
A: inactive

Q: Which Potency [18] does the source give for `OCC1(CO)COC(C(Cl)(Cl)Cl)OC1` here?
A: inactive

Q: What about the Potency [2] of the same compound?
A: inactive

Q: And the activity change, negative = inhibition [3]?
A: inconclusive: -0.667%

Q: And the Potency [4]?
A: inactive

Q: What about the Potency [19] of the same compound?
A: inactive

Q: What about the Potency [6] of the same compound?
A: inactive

Q: What about the Potency [8] of the same compound?
A: inactive

Q: Which Potency [2] does the source give for `CC(=O)N[C@@H](C=O)[C@H](O)[C@H](O)[C@@H](O)CO` here?
A: inconclusive [rising, single point]

Q: And the ratio activity, negative = MMP loss [2]?
A: inconclusive: 8.56%

Q: What about the Potency [20] of the same compound?
A: inactive

Q: And the Potency [10]?
A: inconclusive [cytotoxic, single point]

Q: What does the source list for `OC1OC[C@@H](O)[C@H](O)[C@@H]1O` (stereo not given in full)?
A: ratio activity, negative = MMP loss [2]: inconclusive: 18.2%; Potency [12]: inactive; Potency [4]: inactive

Q: Which Potency [2] does the source give for `COc1c(O[C@@H]2O[C@H](CO)[C@@H](O)[C@H](O)[C@H]2O)cc2c(c1OC)-c1ccc(SC)c(=O)cc1[C@@H](NC(C)=O)CC2` here?
A: inconclusive [activator, full curve, poor fit]
